Results published in the supplement of paper PMC3334620.
In all, about 33,000 sequences were measured (“E-score (-0.5 to 0.5)”: median about -0.04, highest 2% from about 0.36 on). Some of the results follow.

Target: T1, Hmlalpha2 (UniProt P0CY09)
T1 sequence: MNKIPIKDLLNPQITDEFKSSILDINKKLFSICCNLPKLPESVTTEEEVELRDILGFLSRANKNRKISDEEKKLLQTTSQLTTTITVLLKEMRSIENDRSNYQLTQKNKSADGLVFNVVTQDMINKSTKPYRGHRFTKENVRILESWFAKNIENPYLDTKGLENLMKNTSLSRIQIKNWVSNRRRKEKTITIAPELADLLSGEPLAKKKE
Experiment: PBM E-score (8-mer binding enrichment) (E-score (-0.5 to 0.5)); higher = stronger / more preferred TF binding; most listed sequences are background and not binding sites
Conditions: protein concentration: 200 nM; construct: GST-full length
Protocol: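 Universal 'all 10-mer' protein binding microarrays (Agilent AMADID 015681) probed with GST-tagged S. cerevisiae TFs (full-length or DBD) made by in vitro transcription/translation (PURExpress), about 100-200 nM. Bound TF was detected with fluorescent anti-GST. Each ungapped 8-mer (which stands for itself and its reverse complement) is scored by the PBM enrichment score (E-score), a modified Wilcoxon-Mann-Whitney statistic from -0.5 to +0.5, computed with the Universal PBM Analysis Suite. Scale: above 0.35 generally sequence-specific binding.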

Going from ATCTGTTG to GCGCTATA, the “PBM E-score” value falls from 0.0561 to -0.00498.

Compared with AGCTGCGG, CACGTTAA is higher in “PBM E-score” value: -0.251 for the first, 0.376 for the second.

Compared with AGTCCCGG, CTTAACAA is higher in “PBM E-score” value: -0.272 for the first, 0.307 for the second.

First: GAAACCCA
Second: AGACAATC
The “PBM E-score” value of the first is higher: 0.085 for the first, 0.0394 for the second.

Compared with AAAGCTCA, GAGCGGGC is lower in “PBM E-score” value: 0.0369 for the first, -0.261 for the second.

Going from ATGGGCAC to AGGATGAA, the “PBM E-score” value falls from -0.0255 to -0.246.

Compared with GCGCTCAC, ACAATGGG is higher in “PBM E-score” value: -0.159 for the first, 0.0325 for the second.

Going from AGTATAAA to CGTCTGTA, the “PBM E-score” value falls from 0.209 to 0.198.

Compared with CCCGCGTA, CCCGACAA is lower in “PBM E-score” value: 0.237 for the first, -0.0214 for the second.

Compared with CTCGGTAC, TACCGGAA is higher in “PBM E-score” value: -0.155 for the first, -0.137 for the second.

Going from CTAGGACC to AGTAGAGA, the “PBM E-score” value rises from -0.378 to -0.135.

First: AGTGGAGA
Second: AAGGCTGG
The “PBM E-score” value of the first is higher: -0.136 for the first, -0.187 for the second.

Compared with CCCAAAAG, CTCACGAC is lower in “PBM E-score” value: -0.0787 for the first, -0.289 for the second.

First: ATAGTGGC
Second: ATAGGGGG
The “PBM E-score” value of the first is higher: -0.192 for the first, -0.245 for the second.

First: AATACTCA
Second: ACGACAGT
The “PBM E-score” value of the first is higher: 0.18 for the first, 0.0232 for the second.

Going from TACGCGCA to CGAACATC, the “PBM E-score” value falls from 0.252 to 0.0569.

First: AGTCTGGC
Second: GTCCCAGA
The “PBM E-score” value of the first is higher: 0.00106 for the first, -0.286 for the second.

First: CCTCAGAG
Second: CCCGTGCA
The “PBM E-score” value of the first is lower: -0.398 for the first, -0.228 for the second.

Compared with AGCCTTAG, ACATTATG is higher in “PBM E-score” value: -0.129 for the first, 0.216 for the second.

First: AGGTGTGC
Second: GATTGAAA
The “PBM E-score” value of the first is lower: -0.173 for the first, -0.021 for the second.

First: CTAGTATC
Second: ACATGTTA
The “PBM E-score” value of the first is lower: -0.112 for the first, 0.461 for the second.

First: TAACACCA
Second: CATAAGCA
The “PBM E-score” value of the first is higher: 0.314 for the first, 0.065 for the second.

Going from AACATACT to CGACGCTA, the “PBM E-score” value falls from 0.255 to 0.0385.

Compared with CTATATGC, AATTTGAA is lower in “PBM E-score” value: 0.1 for the first, 0.018 for the second.

First: AGCCGAGG
Second: CCGATAAG
The “PBM E-score” value of the first is higher: 0.0161 for the first, -0.244 for the second.

First: GATCTAGC
Second: TCTCGAGA
The “PBM E-score” value of the first is lower: -0.159 for the first, 0.0884 for the second.

Going from AGGTCTAT to AGATCAAT, the “PBM E-score” value falls from -0.0234 to -0.0554.

Compared with GCTTATAA, ACCGCAGA is lower in “PBM E-score” value: -0.0644 for the first, -0.216 for the second.

Compared with CGTTGACC, GAAGCATC is lower in “PBM E-score” value: 0.1 for the first, -0.324 for the second.

First: CAGCTGGC
Second: CCAATGGA
The “PBM E-score” value of the first is higher: -0.157 for the first, -0.202 for the second.

First: ACCCCAGG
Second: CTTAACGC
The “PBM E-score” value of the first is lower: -0.274 for the first, 0.278 for the second.

Compared with AGTCAGAT, AACCAGCT is higher in “PBM E-score” value: -0.00404 for the first, 0.164 for the second.

Going from CTGGAACC to AGGCTATG, the “PBM E-score” value rises from -0.109 to -0.0502.

First: CGTGATTA
Second: CCAGGCGC
The “PBM E-score” value of the first is higher: 0.253 for the first, -0.162 for the second.

First: GAGTTAAC
Second: ACGACGAC
The “PBM E-score” value of the first is higher: 0.234 for the first, -0.179 for the second.

Going from GCTCGTCC to GAACATCA, the “PBM E-score” value rises from -0.111 to -0.0481.

Compared with CAGTGCGC, ATGTGTAA is higher in “PBM E-score” value: -0.267 for the first, 0.452 for the second.

First: CTTGACAC
Second: ATCCGGCC
The “PBM E-score” value of the first is higher: 0.195 for the first, -0.269 for the second.

First: GCCCTATA
Second: TAAAAAGA
The “PBM E-score” value of the first is lower: -0.212 for the first, 0.0525 for the second.

Going from ACGTGCGC to TTCCCAAA, the “PBM E-score” value falls from 0.209 to 0.103.

Compared with CAACGCCA, CATGCTGA is higher in “PBM E-score” value: 0.0571 for the first, 0.14 for the second.

Compared with ATACGAGC, GTTCTGTA is lower in “PBM E-score” value: 0.195 for the first, 0.169 for the second.

Going from CATACTGG to ACTTCAGG, the “PBM E-score” value falls from 0.0171 to -0.0344.
